# Measurements reported in the supplement of paper PMC3334620.
# In all, about 33,000 sequences were measured (“E-score (-0.5 to 0.5)”: median about -0.035, highest 2% from about 0.35 on). This is one part of the list.
# Target: T1, Pdr3 (UniProt P33200)
# T1 sequence: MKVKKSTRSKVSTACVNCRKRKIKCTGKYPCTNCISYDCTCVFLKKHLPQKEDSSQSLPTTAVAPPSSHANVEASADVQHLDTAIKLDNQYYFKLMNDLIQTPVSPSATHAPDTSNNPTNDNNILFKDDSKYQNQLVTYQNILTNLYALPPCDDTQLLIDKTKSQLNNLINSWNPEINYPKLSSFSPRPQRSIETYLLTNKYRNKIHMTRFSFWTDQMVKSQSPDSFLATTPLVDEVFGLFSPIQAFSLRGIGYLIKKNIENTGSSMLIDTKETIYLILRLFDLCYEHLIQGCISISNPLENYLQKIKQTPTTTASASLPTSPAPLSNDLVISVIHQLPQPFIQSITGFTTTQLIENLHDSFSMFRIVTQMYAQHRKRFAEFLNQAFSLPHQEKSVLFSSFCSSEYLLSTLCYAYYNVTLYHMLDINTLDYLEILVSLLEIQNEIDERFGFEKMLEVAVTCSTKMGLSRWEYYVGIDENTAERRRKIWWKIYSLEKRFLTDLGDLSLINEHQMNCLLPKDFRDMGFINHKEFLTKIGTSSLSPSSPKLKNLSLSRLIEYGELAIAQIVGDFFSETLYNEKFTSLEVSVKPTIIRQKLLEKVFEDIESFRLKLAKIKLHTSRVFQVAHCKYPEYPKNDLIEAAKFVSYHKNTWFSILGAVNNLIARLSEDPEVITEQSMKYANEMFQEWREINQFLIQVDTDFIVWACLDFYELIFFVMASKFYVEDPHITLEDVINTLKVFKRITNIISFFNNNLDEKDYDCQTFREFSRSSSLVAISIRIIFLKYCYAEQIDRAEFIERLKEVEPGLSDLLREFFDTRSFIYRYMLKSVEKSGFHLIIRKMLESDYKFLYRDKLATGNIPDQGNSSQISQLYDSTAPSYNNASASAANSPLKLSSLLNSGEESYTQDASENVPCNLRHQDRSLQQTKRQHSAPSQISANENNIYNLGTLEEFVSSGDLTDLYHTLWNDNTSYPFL
# Test: PBM E-score (8-mer binding enrichment) (E-score (-0.5 to 0.5)); higher = stronger / more preferred TF binding; most listed sequences are background and not binding sites
# Conditions: protein concentration: 200 nM; construct: GST-full length
# Protocol: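 Universal 'all 10-mer' protein binding microarrays (Agilent AMADID 015681) probed with GST-tagged S. cerevisiae TFs (full-length or DBD) made by in vitro transcription/translation (PURExpress), about 100-200 nM. Bound TF was detected with fluorescent anti-GST. Each ungapped 8-mer (which stands for itself and its reverse complement) is scored by the PBM enrichment score (E-score), a modified Wilcoxon-Mann-Whitney statistic from -0.5 to +0.5, computed with the Universal PBM Analysis Suite. Scale: above 0.35 generally sequence-specific binding.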
row,Sequence,PBM E-score
1,AGCCGACG,0.13
2,CTTCGGGA,0.199
3,CCGCGTGA,0.172
4,CGAGATCA,0.109
5,CCACTCCA,0.0401
6,CATTGCCA,-0.0846
7,CAGTGAAC,0.0362
8,GCGCGGAA,0.464
9,CAGGTGTA,-0.174
10,GCTGCGTA,-0.289
11,GTCCAATA,0.0769
12,GAAGGGCC,0.00364
13,GAGACGCA,0.0699
14,GCCTGCGC,0.00515
15,ACACCGGA,0.357
16,GACGTAAA,-0.0886
17,GTAACCAA,0.0909
18,ACTTTCAA,0.0377
19,GATAAGAC,-0.0749
20,GAGACATC,0.0232
21,GACTACTA,-0.163
22,CATGCGGG,0.0831

row,Sequence,PBM E-score
1,CAAGCGTC,0.0217
2,AGGCGGGA,0.0996
3,ATGGCTAC,-0.233
4,AAGAAAAT,0.0748
5,CAGGTACG,-0.107
6,CGCAATCA,0.11
7,CTATAAGC,-0.129
8,AACCGTCC,0.0748
9,ATTAAGAG,-0.0729
10,ACCAGCCC,0.129
11,GATGCCAC,-0.139
12,AGTTTCGC,-0.0119
13,ACCTTAAC,-0.0597
14,GGTGTATA,-0.173
15,CATGTAGA,-0.0539
16,GCTGGATA,-0.149
17,ATCTGCAC,0.0185
18,GACTTTCC,0.176
19,AGACGATG,-0.0893
20,CACCACAC,0.0302
21,CGTGACAG,-0.0957
22,ATCCGACA,0.211

row,Sequence,PBM E-score
1,AGCGCGGG,0.324
2,CCGAAGCA,0.0824
3,CAACATTG,-0.0585
4,AACAGATA,-0.0677
5,ACCTATAA,-0.0817
6,CTGCTGTC,0.101
7,ATCGAGTC,-0.0326
8,ACCAGGCC,0.00289
9,TAAATCGA,0.0127
10,CAGTGGGG,-0.129
11,GAGGAAAC,0.053
12,CCCGCTAA,0.0811
13,GATGCCTA,-0.261
14,GCGGTGCC,0.105
15,GACTTACA,-0.318
16,CACTAGTA,-0.123
17,CGTAAAGA,-0.236
18,CAGACCCA,-0.119
19,CTGCTAGA,-0.0498
20,GATTGCGA,0.116
21,CATATCAG,-0.0631
22,CGGTTGAC,0.211

row,Sequence,PBM E-score
1,AGATTCTG,-0.136
2,CATACATC,-0.0515
3,GGGTACCC,0.133
4,CAAAGCCA,-0.102
5,AATACTGG,0.0346
6,CCCAGCAC,-0.0468
7,GCGTCCTA,-0.186
8,CCCGGCCG,0.357
9,CAACTTCG,9e-05
10,CTTCCTGA,0.0336
11,AGCGTCCA,-0.133
12,AATATTTG,0.0496
13,CGCGGTGC,0.172
14,AGGGGAGG,0.0661
15,ATCCACAT,-0.0244
16,AAACAGTG,-0.0767
17,CAAGCTAA,-0.213
18,ACGCCAGA,-0.0745
19,AGACTCCG,0.142
20,CGATTGAC,-0.0366
